# PubChem BioAssay AID588342 (National Center for Advancing Translational Sciences (NCATS), 2011)
# Out of some 360,000 compounds screened, about 25,000 (6.9%) were called active. Inconclusive means that the source gave no clear call. Such entries were picked first, then a sample of the others. Calls follow the shape of the dose curve; as a rule, active = well fitted inhibition curve with a large enough effect; inconclusive = small, poorly fitted or top-dose-only effect; inactive = flat fitted curve, though single readings scatter. A potency beside an inconclusive call is a rough fit, not a confirmed value.
# Target: Luciferin 4-monooxygenase (Photinus pyralis) (UniProt P08659)
# Chain of UniProt P08659 (P08659 whole entry, looked up): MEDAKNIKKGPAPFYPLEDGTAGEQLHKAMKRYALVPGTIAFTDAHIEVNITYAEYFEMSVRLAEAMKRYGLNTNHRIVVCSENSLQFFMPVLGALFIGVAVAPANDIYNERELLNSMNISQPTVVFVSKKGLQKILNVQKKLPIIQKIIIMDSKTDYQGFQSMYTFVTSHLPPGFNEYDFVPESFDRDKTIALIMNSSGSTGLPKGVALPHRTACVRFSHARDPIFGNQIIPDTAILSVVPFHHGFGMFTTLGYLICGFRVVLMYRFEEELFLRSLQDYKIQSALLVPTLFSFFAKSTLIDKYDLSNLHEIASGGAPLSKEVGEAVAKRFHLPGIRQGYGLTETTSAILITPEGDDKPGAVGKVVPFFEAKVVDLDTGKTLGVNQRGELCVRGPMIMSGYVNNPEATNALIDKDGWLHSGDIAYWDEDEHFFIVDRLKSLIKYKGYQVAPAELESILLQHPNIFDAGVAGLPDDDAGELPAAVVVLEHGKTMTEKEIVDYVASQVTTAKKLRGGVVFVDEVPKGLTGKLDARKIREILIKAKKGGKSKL
# Assay: qHTS profiling assay for firefly luciferase inhibitor/activator using purifed enzyme and Km concentrations of substrates (counterscreen for miR-21 project); also: nearly all actives have a fitted effect of over 55% in size
# Conditions: purified FLuc, luminescence inhibition; series mostly up to 57.5 µM
# How it was run: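 Purified P. pyralis luciferase, 10 nM final, with Km-level 10 uM D-luciferin and 10 uM ATP in 50 mM Tris acetate pH 7.5, 10 mM Mg acetate, 0.01% Tween-20, 0.05% BSA; 6-point qHTS titration about 60 µM downward; luminescence read.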
# Potency is read from the fitted curve at half-maximal effect; tags tell the direction and shape of the fitted curve.
row,Structure (SMILES),Potency
1,COc1cccc(CSc2nc3n(n2)C(c2cccc(F)c2)C(C(=O)Nc2ccccc2C)=C(C)N3)c1 (centres undefined),inactive
2,CC(C)Oc1ccc(C(=O)NC(=S)Nc2ccc(Cl)c(C(=O)O)c2)cc1,active: 16.9 µM
3,Cc1cc(C(=O)CN2C(=O)C(=O)N(Cc3ccco3)C2=O)c(C)n1CCc1ccccc1,inactive
4,COc1ccc(CN(C(=O)Nc2cccc(Cl)c2)c2ccccn2)cc1OC,"inconclusive: 21.3 µM [inhibitor, partial curve, poor fit]"
5,Cc1ccc(O)c(NC(=O)c2cc(-c3ccc4c(c3)OCO4)on2)c1,"inconclusive: 0.12 µM [inhibitor, full curve]"
6,Cc1cccc(NC(=O)CNC(=O)c2sc3ccccc3c2Cl)n1,"inconclusive: 26.9 µM [inhibitor, single point]"
7,O=C(/C=C/c1cccc(Oc2ccccc2)c1)N1CCOCC1,active: 15.1 µM
8,O=C(Nc1nnc(SCc2ccc(F)cc2)s1)c1ccc2ncsc2c1,"inconclusive: 21.3 µM [inhibitor, single point]"
9,COC(=O)[C@@]1(Cc2ccc(F)cc2)[C@H]2c3cc(C(=O)N4CCCC4)n(CCc4ccc(O)c(O)c4)c3C[C@H]2CN1C(=O)c1ccccc1,inactive
10,COc1ccc(C(=O)COC(=O)/C=C/c2ccc(S(=O)(=O)Nc3cccc(S(N)(=O)=O)c3)cc2)cc1,"inconclusive: 37.9 µM [inhibitor, partial curve, poor fit]"
11,COc1cccc(OC)c1NC(=O)CN(C)S(=O)(=O)c1ccc2c(c1)OCCO2,inactive
12,CC(=O)c1ccc(NS(=O)(=O)c2ccc(-c3cc(C)no3)s2)cc1,"inconclusive: 30.1 µM [inhibitor, partial curve, poor fit]"
13,CSc1nc(N)c(C(=O)Nc2ccc([N+](=O)[O-])cc2)s1,inactive
14,Cc1ccc(OCCN2C(=O)c3ccccc3C2=O)c(C)c1,"inconclusive: 30.1 µM [inhibitor, partial curve, poor fit]"
15,COc1ccc(N2CCN(C(=S)Nc3ccccc3OC)CC2)cc1,inactive
16,O=C(CCn1c(=O)sc2ccccc21)NCc1ccc2c(c1)OCO2,"inconclusive: 26.9 µM [inhibitor, single point]"
17,O=C(Nc1ccccc1)c1ccc(-c2ccc([N+](=O)[O-])cc2)o1,active: 13.5 µM
18,O=C(CCCN1C(=O)/C(=C/c2ccccc2)SC1=S)Nc1cccc(O)c1,"inconclusive: 23.9 µM [inhibitor, partial curve, poor fit]"
19,COc1cc(/C=C/c2nc3ccc([N+](=O)[O-])cc3s2)ccc1OCC(=O)O,active: 2.69 µM
